In PubChem BioAssay AID504832 (National Center for Advancing Translational Sciences (NCATS), 2011):
About 18,000 (5.8%) of roughly 310,000 compounds were called active. The inconclusive results got no clear call from the source; some entries with a clear call stand among them for comparison. Calls come from the whole dose curve; as a rule, active = well fitted inhibition curve with a large enough effect; inconclusive = small, poorly fitted or top-dose-only effect, or another doubt; inactive = no such curve, though single readings can be large or run the other way. Potencies of inconclusive entries are left out as doubtful fits.

test: Primary qHTS for delayed death inhibitors of the malarial parasite plastid, 48 hour incubation; conditions: P. falciparum luciferase growth in erythrocytes; series mostly up to 28.7 µM
How it was run: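 Cell-based growth assay: transgenic P. falciparum expressing firefly luciferase, cultured in red cells within RPMI 1640 containing 0.5% w/v Albumax, 24 mM bicarbonate and gentamycin. A drop in luciferase activity indicates inhibition.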
Potency is the fitted concentration of half-maximal effect; tags give direction and shape of the fitted curve.

Structure (SMILES) | Potency
Cc1ccc(S(=O)(=O)Cn2nnnc2C(C(C)C)N2CCSCC2)cc1 (stereo not drawn) | inactive
CCCCCCc1ccc(N2C[C@H](Cc3ccccc3)[C@@H](CC(=O)NCc3ccc(OC)cc3)C2=O)cc1 | inactive
CCOC(=O)c1ccccc1NC(=O)COC(=O)CCNS(=O)(=O)c1ccccc1 | inactive
CCOC(=O)C1=CC[C@H]2c3c(c4ccc(OC)cc4n3C)C(=O)C1N2S(=O)(=O)c1ccc(C)cc1 | inconclusive [inhibitor, partial curve]
CC(C)[C@H](NC(=O)c1cccc(S(=O)(=O)N2CCCC2)c1)c1nc2ccccc2[nH]1 | inconclusive [inhibitor, single point]
COc1ccc(Nc2ncc(C(=O)N3CCN(c4ccccc4OC)CC3)c3ccccc23)cc1 | active: 11.7 µM
CC1(OC(=O)C2CCCC2)C(=O)C=C2C=C(c3ccsc3)N(c3ccccc3)C=C2C1=O (stereo not drawn) | inconclusive [inhibitor, single point]
O=C(CN1CCCCCC1)NC(c1ccccc1)c1ccccc1 | inconclusive [inhibitor, partial curve]
Cc1ccc(CNC(=O)CC(NC(=O)c2ccccc2)c2ccccc2)cc1 (stereo not drawn) | inconclusive [inhibitor, partial curve]
Cc1ccccc1NC(=S)N(Cc1cccnc1)Cc1ccco1 | inconclusive [inhibitor, single point]
CCN(C(=O)COC(=O)CNS(=O)(=O)c1ccc2ccccc2c1)C1CCCCC1 | inconclusive [inhibitor, partial curve, poor fit]
CC(=O)c1cccc(N=c2scc(-c3ccc(S(=O)(=O)N4CCOCC4)cc3)n2CCO)c1 | active: 5.22 µM
CCOC(=O)Cc1csc(NC(=O)c2sc3nc4c(C)cc(C)cc4cc3c2N)n1 | inconclusive [inhibitor, single point]
O=C(NCCc1cnc[nH]1)c1cccs1 | inconclusive [inhibitor, full curve, poor fit]
Cc1ccc(Cn2cccc2/C=N/NC(=S)Nc2ccc(C)cc2)cc1 | inconclusive [inhibitor, partial curve, poor fit]
CCOC(=O)C(CCc1ccccc1)NC(C)C(=O)N1Cc2cc(OC)c(OC)cc2CC1C(=O)O (stereo not drawn) | inconclusive [inhibitor, partial curve]
COc1cccc(/C=N/NC(=O)c2c(-c3ccccc3)noc2C)c1O | active: 5.86 µM
Cc1ccc2nc(N=C(N)N)nc(C)c2c1 | inconclusive [inhibitor, full curve]
Cc1ccc(S(=O)(=O)Nc2ccc(NC(=O)c3ccc(F)cc3)cc2)cc1 | inconclusive [inhibitor, partial curve, poor fit]
CCn1c(=O)n(CC)c2cc(NC(=O)C(C)c3ccccc3)c(Br)cc21 (stereo not drawn) | inconclusive [inhibitor, single point]
CC1CCN(C(=O)CSc2nnc(Cc3cccn3C)n2CCc2ccccc2)CC1 | inconclusive [inhibitor, single point]
COc1ccc(CN(C)C(=O)c2ccc(NS(=O)(=O)c3ccc(F)cc3)cc2)c(OC)c1OC | inconclusive [inhibitor, partial curve, poor fit]
CCC1CCCCN1C(=O)NC(=O)c1ccccc1 (stereo not drawn) | inactive

Structure (SMILES) | Potency
Cc1ccc(S(=O)(=O)N(C)c2c(C)ccc(S(=O)(=O)NC(C)(C)C)c2C)cc1 | inconclusive [inhibitor, partial curve]
COc1ccccc1NC(=O)COC(=O)c1ccccc1C(=O)N1CCN(c2ccccc2)CC1 | inconclusive [inhibitor, single point]
CCC(C)(C)n1nnnc1C(c1cc(OC)ccc1OC)N1CCN(Cc2ccccc2)CC1 (stereo not drawn) | inconclusive [inhibitor, single point]
CCOC(=O)N1CCC(N2Cc3cccc(C(=O)Nc4ccc(F)cc4)c3C2=O)CC1 | active: 3.29 µM
O=C(c1cn(-c2ccccc2)nc1-c1cccnc1)N1CCN(S(=O)(=O)c2ccccc2F)CC1 | active: 11.7 µM
COc1ccc(-c2noc(CCC(=O)NCCCN3CCC(Cc4ccccc4)CC3)n2)cc1 | inactive
CCOC(=O)C1=CC[C@]2(C)c3c(c4ccccc4n3C)C(=O)C1N2C | active: 13.1 µM
c1cc(-c2nnc3sc(C4CCCCC4)nn23)ccn1 | inconclusive [inhibitor, single point]
O=C(c1cc2cc(Br)ccc2oc1=O)N1CCN(c2ccccn2)CC1 | inactive
CN(CC(=O)Nc1ccc(Cl)cc1)C(=O)COc1ncnc2ccccc12 | inconclusive [inhibitor, single point]
Cc1c(CC(=O)N2CCN(C(=O)C3COc4ccccc4O3)CC2)c(=O)oc2c(O)c(O)ccc12 (stereo not drawn) | inconclusive [inhibitor, partial curve]
COc1ccc(NC(=O)CN(C)Cc2c(F)cccc2Cl)cc1S(=O)(=O)N1CCCCC1 | inconclusive [inhibitor, single point]
O=C(NC1CCCCCC1)c1cc(=O)[nH]c2ccc(S(=O)(=O)N3CCOCC3)cc12 | inconclusive [inhibitor, partial curve, poor fit]
COc1ccc(OCC(=O)N(Cc2ccc(C)o2)C2CCS(=O)(=O)C2)cc1 (stereo not drawn) | inactive
COc1ccc(C(=O)c2c3ccc(C(F)(F)F)cc3[n+]([O-])n2CCCC(N)=O)cc1 | inconclusive [inhibitor, partial curve, poor fit]
Cc1cc(C)nc(NC(=O)c2cnc3sccn3c2=O)n1 | inactive
COc1cc([C@@H]2CC=C(C(=O)O)[C@H](c3cccc(Cl)c3)N2S(=O)(=O)c2ccc(C)cc2)cc(OC)c1OC | inconclusive [inhibitor, single point]
O=C(NCCCn1ccnc1)c1cc(C2CC2)on1 | inactive
CC(=O)c1ccc(OC(C)C(=O)NC2CCCCC2C)cc1 (stereo not drawn) | inconclusive [inhibitor, single point]
O=c1[nH]c(NCCO)nnc1Cc1ccccc1 | inactive
S=C(NCc1ccccc1)N/N=C/c1cccs1 | active: 7.38 µM
CS(=O)(=O)Nc1ccc(C(=O)Nc2ccccc2-c2ccccc2)cc1 | inconclusive [inhibitor, partial curve, poor fit]
CN(CC(=O)Nc1ccc(F)cc1)C(=O)COC(=O)/C=C/c1ccc(OC(F)F)cc1 | inconclusive [inhibitor, single point]

Structure (SMILES) | Potency
CCOc1ccc(CNC(=O)CCS(=O)(=O)Cc2cccc(Cl)c2)cc1OC | inactive
O=S(=O)(c1cnc(Cl)c(Br)c1)N1CCc2ccccc21 | inconclusive [inhibitor, partial curve, poor fit]
O=C(C[n+]1ccccc1)N/N=C/c1ccco1 | inconclusive [inhibitor, partial curve]
CCCCn1c(SCc2ncc(-c3ccccc3)o2)nc2cc(S(N)(=O)=O)ccc21 | inconclusive [inhibitor, single point]
COc1cc(C(C(=O)NC(C)(C)C)N(C(=O)CNC(=O)c2cccs2)c2ccccc2)cc(OC)c1OC (stereo not drawn) | inconclusive [inhibitor, single point]
CC(=O)Nc1cc(C(F)(F)F)ccc1N1CCOCC1 | inactive
Cc1ccn2cc(C(=O)Nc3ccc4c(c3)OCCO4)nc2c1 | inactive
O=c1cc(N2CCc3ccccc3C2)[nH]c(=O)n1-c1ccc(Br)cc1 | inactive
CC([C@H](O)c1ccccc1)N(C)C (stereo partly drawn) | inconclusive [inhibitor, single point]
Oc1ccc(CN2CCCCC2)nc1-c1ccccc1 | active: 0.522 µM
COC(=O)c1c(C(=O)OC)c(-c2ccc(C(C)(C)C)cc2)n2c1CS(=O)C2 (stereo not drawn) | active: 10.4 µM
Cc1cc(C)nc(NC(=O)c2cc(-c3ccc(C)s3)nc3ccccc23)c1 | inconclusive [inhibitor, single point]
Cc1ccc(-c2nn3c(C)nnc3s2)cc1NCc1c(F)cccc1Cl | inconclusive [inhibitor, single point]
N#Cc1ccccc1NC(=O)CSc1nnc(-c2ccccc2O)n1-c1ccccc1 | inconclusive [inhibitor, single point]
CCOC(=O)c1cc(C)n(Cc2cccc(OC)c2OC)c1C | inconclusive [inhibitor, full curve, poor fit]
c1ccc(CN2CCN(C(c3ccccc3)c3ccccc3)CC2)cc1 | inconclusive [inhibitor, single point]
CCCC(=O)n1nc(-c2ccc(Cl)cc2)nc1SC | inactive
CCNC(=O)NC(=O)C(C)OC(=O)C1CCN(S(=O)(=O)c2ccc(C)c(C)c2)CC1 (stereo not drawn) | inactive
CCOC(=O)C1CCN(CC(O)COc2ccc(C(C)(C)CC)cc2)CC1 (stereo not drawn) | inconclusive [inhibitor, single point]
CCc1cccc2c(-c3csc(=NC)n3C)c[nH]c12 | inconclusive [inhibitor, partial curve, poor fit]
O=C(CCC(=O)N1CCN(c2ccc(F)cc2)CC1)c1ccc(Cl)cc1 | inconclusive [inhibitor, single point]
Cc1ccnc(NC(=O)CCC(=O)N(CC(=O)NCCc2ccccc2)Cc2ccco2)c1 | inconclusive [inhibitor, partial curve, poor fit]
